The supplement of paper PMC9446081
Screen size: about 39,000 compounds; about 220 (0.56%) showed activity. Some of the results follow.

System: Escherichia coli K-12 BW25113
Assay: relative growth (OD600 normalised to plate interquartile mean) (fraction); higher = less growth inhibition, active = 0.2 or less
Details: 50 µM; LB; incubation time: overnight (16-24 h)
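Also: static incubation at 37 °C against the wild-type strain, values averaged over two biological replicates.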

SMILES	relative growth
C[C@@H]1CCCCO[C@@H](CN(C)Cc2ccccc2)[C@H](C)CN([C@@H](C)CO)C(=O)c2cc(NS(=O)(=O)c3ccccc3)ccc2O1	inactive: 0.966
Cc1noc(C)c1S(=O)(=O)Nc1ccc2c(c1)C(=O)N([C@H](C)CO)C[C@@H](C)[C@@H](CN(C)C)OCCCC[C@@H](C)O2	inactive: 0.995
CN1CCN(C(=O)C[C@@H]2C=C[C@@H](NC(=O)c3ccc4c(c3)OCO4)[C@H](CO)O2)CC1	inactive: 0.91
COCC#Cc1ccc2c(c1)O[C@@H](CN(C)Cc1ccc(F)cc1)[C@@H](C)CN([C@@H](C)CO)S2(=O)=O	inactive: 1.02
CCC(=O)N(C)C[C@H]1Oc2ncc(C#C[C@@H](C)O)cc2C(=O)N([C@@H](C)CO)C[C@H]1C	inactive: 1.02
C[C@@H]1CN([C@@H](C)CO)C(=O)c2cc(NC(=O)C3CC3)ccc2O[C@@H]1CN(C)S(=O)(=O)c1ccccc1	inactive: 0.985
NC(=O)C[C@H](NC(=O)Cc1ccc(O)cc1O)C(=O)O	inactive: 1.01
COc1cccc(NC(=O)N(C)C[C@@H]2Oc3cc(C#Cc4ccncc4)ccc3S(=O)(=O)N([C@@H](C)CO)C[C@@H]2C)c1	inactive: 1.02
CC(O)C(=O)Nc1c(I)c(C(=O)NC(CO)CO)c(I)c(C(=O)NC(CO)CO)c1I (stereo not drawn)	inactive: 1.12
C[C@@H]1CN([C@@H](C)CO)C(=O)c2cc(NS(=O)(=O)c3ccccc3)ccc2O[C@H]1CN(C)S(C)(=O)=O	inactive: 0.987
C[C@@H]1CN([C@H](C)CO)C(=O)c2cc(NC(=O)CCN3CCOCC3)ccc2O[C@H]1CN(C)C(=O)Nc1ccc(F)cc1	inactive: 0.977
CC=Cc1ccc2n(c1=O)C[C@H]1[C@H](CO)[C@@H](C(=O)NCCc3cn(C)cn3)N(C(=O)C3CC3)[C@@H]21	inactive: 1
C[C@@H]1CN([C@@H](C)CO)C(=O)c2cccc(NC(=O)C3CCCCC3)c2O[C@@H]1CN(C)C(=O)Nc1ccc(C(F)(F)F)cc1	inactive: 0.989
CCOC(=O)Nc1ccc(C)s1	inactive: 0.998
Cc1ccc(S(=O)(=O)Nc2ccc3c(c2)C(=O)N([C@@H](C)CO)C[C@@H](C)[C@@H](CN(C)Cc2ccc(Cl)c(Cl)c2)O3)cc1	inactive: 0.978
C[C@@H]1CN([C@H](C)CO)C(=O)c2c(c3ccccc3n2C)-c2ccccc2CO[C@@H]1CN(C)C(=O)Nc1cccc(Cl)c1Cl	inactive: 1.02
NCC[C@H]1CC[C@H](NC(=O)c2ccccc2F)[C@H](CO)O1	inactive: 1.02
COc1ccc(CN(C)C[C@@H]2Oc3ccc(NC(=O)C4CC4)cc3CC(=O)N([C@@H](C)CO)C[C@@H]2C)cc1	inactive: 0.992
C[C@H](CO)N1C[C@H](C)[C@H](CN(C)Cc2ccc(C(=O)O)cc2)Oc2c(NC(=O)Nc3ccc(C(F)(F)F)cc3)cccc2C1=O	inactive: 0.998

SMILES	relative growth
O=C(C[C@H]1CC[C@@H]2[C@H](COC[C@@H](O)CN2C(=O)Nc2cccc(F)c2)O1)NCCCN1CCOCC1	inactive: 0.949
Cc1ccc(S(=O)(=O)N(C)C[C@@H]2Oc3c(NC(=O)C4CCOCC4)cccc3C(=O)N([C@@H](C)CO)C[C@H]2C)cc1	inactive: 0.989
C=CN1CCCC1=O	inactive: 0.978
C[C@H](CO)N1C[C@H](C)[C@H](CN(C)Cc2ccc(C(=O)O)cc2)OCCCC[C@H](C)Oc2ccc(NC(=O)CCC(F)(F)F)cc2C1=O	inactive: 1.04
COC[C@@H](C)Nc1ncnc2nc[nH]c12	inactive: 1.01
CC(C)NC(=O)N(C)C[C@@H]1Oc2ccc(NC(=O)Cc3ccccc3)cc2C(=O)N([C@H](C)CO)C[C@H]1C	inactive: 0.996
COc1ccc(S(=O)(=O)Nc2ccc3c(c2)C(=O)N([C@H](C)CO)C[C@@H](C)[C@H](CN(C)C(=O)Nc2c(C)noc2C)O3)cc1	inactive: 1.01
COc1ccc(NC(=O)Nc2ccc3c(c2)C(=O)N([C@H](C)CO)C[C@H](C)[C@@H](CN(C)S(=O)(=O)c2c(C)noc2C)OCCCC[C@H](C)O3)cc1	inactive: 1.01
COc1ccc(NC(=O)N(C)C[C@@H]2OCCCC[C@@H](C)Oc3ccc(NC(=O)Nc4ccccc4)cc3C(=O)N([C@@H](C)CO)C[C@H]2C)cc1	inactive: 1.03
C[C@H](CO)N1C[C@H](C)[C@H](CN(C)C(=O)CCN2CCCCC2)Oc2ncc(C#Cc3ccccn3)cc2C1=O	inactive: 0.992
COc1ccc(CN(C)C[C@@H]2OCCCC[C@H](C)Oc3ccc(NS(=O)(=O)c4c(C)noc4C)cc3C(=O)N([C@@H](C)CO)C[C@@H]2C)cc1	inactive: 1
Cc1cc(C(=O)Nc2cccc3c2O[C@@H](CN(C)Cc2ccc4c(c2)OCO4)[C@@H](C)CN([C@@H](C)CO)C3=O)n(C)n1	inactive: 0.993
COCC#Cc1ccc2c(c1)O[C@@H](CN(C)S(=O)(=O)c1ccc(F)cc1)[C@@H](C)CN([C@@H](C)CO)S2(=O)=O	inactive: 1.02
COc1ccc(NC(=O)N(C)C[C@@H]2Oc3c(NC(=O)c4cc(C)nn4C)cccc3C(=O)N([C@@H](C)CO)C[C@@H]2C)cc1	inactive: 1.02
C=CCN(C(=O)[C@H]1N(c2c(Cl)cccc2CO)C(=O)[C@H]2[C@H](C(=O)O)[C@@H]3C=C[C@@]21O3)c1ccc(OC)cc1	inactive: 1.03
CSCCC(NC(=O)C(Cc1c[nH]c2ccccc12)NC(=O)CCNC(=O)OC(C)(C)C)C(=O)NC(CC(=O)O)C(=O)NC(Cc1ccccc1)C(N)=O (stereo not drawn)	inactive: 0.9
COc1ccc(NC(=O)N(C)C[C@H]2Oc3cc(C#CCN(C)C)ccc3S(=O)(=O)N([C@@H](C)CO)C[C@@H]2C)cc1	inactive: 0.96
C[C@@H]1CCCCO[C@@H](CN(C)S(=O)(=O)c2ccccc2)[C@@H](C)CN([C@H](C)CO)C(=O)c2cc(NC(=O)Nc3ccc(C(F)(F)F)cc3)ccc2O1	inactive: 1.03
C[C@@H]1CN([C@H](C)CO)C(=O)Cc2cc(NC(=O)Cc3ccccc3)ccc2O[C@H]1CN(C)S(=O)(=O)c1ccc(F)cc1	inactive: 0.979
